# Experimental data reported in paper PMC4242493.
# The other results are listed elsewhere or left out. The list includes weakly bound sequences.
# Target: MaxL homodimer (UniProt P61244)
# Assay: universal protein-binding microarray (PBM)
# Conditions: PBS-based mixture, 10 nM His-tagged protein dimer, 2% milk, 200 ng/uL BSA, 50 ng/uL salmon testes DNA, 0.02% TX-100; detection with Alexa 488 anti-His …; high values mean tight binding; most listed sequences are background and not binding sites; double strand, one strand shown
# Sequence of UniProt P61244 (P61244 whole entry): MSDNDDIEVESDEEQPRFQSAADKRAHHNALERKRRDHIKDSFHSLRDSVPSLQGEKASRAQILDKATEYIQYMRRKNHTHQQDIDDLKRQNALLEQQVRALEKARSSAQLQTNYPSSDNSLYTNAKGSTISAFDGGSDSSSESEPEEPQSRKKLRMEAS
row,Sequence,binding signal (normalized occupancy)
1,CCCTCGCG,0.0809
2,AACGAGGG,0.0775
3,CGACGAGA,0.0718
4,CATTTCTC,0.0744
5,AGCCTGAC,0.074
6,CCTATGCC,0.0801
7,AGCACTTG,0.071
8,CCGTAGTC,0.0763
9,CCCTTCTC,0.0709
10,ACTAAGTC,0.0734
11,ATAACAAA,0.0738
12,CGGAGCCC,0.0657
13,ATGACCAC,0.0824
14,GCTTTTGA,0.0743
15,CCTGCCTC,0.0718
16,ACCACCGA,0.0791
17,CTTTTGCC,0.0729
18,GTCCTATA,0.0791
19,ACGGACCG,0.0664
20,TACGTATA,0.0771
21,AGTTCCGA,0.0673
22,GCGTAAAC,0.0733
23,AAACCCGT,0.0773
24,CCATCGAC,0.0722
25,ATGCAGCC,0.0825

row,Sequence,binding signal (normalized occupancy)
1,CGCGATCA,0.0805
2,TTAGTAAA,0.0726
3,GCCCGCCC,0.0728
4,ACTCTTCC,0.0739
5,CTAGCGTC,0.0721
6,GGGCAAGA,0.0727
7,ACTTATGC,0.0788
8,ACTCCGAA,0.0702
9,CCACGTCA,0.0906
10,CTATTACC,0.0759
11,ATAACGTC,0.0773
12,AGGGCACG,0.0865
13,GTGGGCGA,0.0773
14,CTGACGAA,0.072
15,AGAAGAGC,0.071
16,AAGTAAAA,0.0699
17,CCGTCGAA,0.0686
18,ACTGTAGC,0.0692
19,AAGAGGCA,0.0761
20,TGGAAAAA,0.0791
21,AGAGGTTC,0.0758
22,ATCTGAGA,0.0757
23,ACAACCGA,0.0733
24,CTCATGTC,0.0928
25,TGATAAAA,0.0788

row,Sequence,binding signal (normalized occupancy)
1,GCCGTGAA,0.0733
2,CAATAATA,0.0803
3,ATCATTTA,0.078
4,AAAATATG,0.0812
5,ATAAGTAA,0.0793
6,CGTCAGAA,0.0764
7,GGGTCATA,0.0814
8,GCGAGTAA,0.073
9,ACGGCTCG,0.069
10,GGGGCACC,0.0727
11,CTTATAAA,0.0807
12,AGGAACCG,0.0686
13,CAGACTAC,0.0675
14,GCGGGTGA,0.072
15,AATAGACG,0.0743
16,CCGCAAAG,0.0657
17,AGGGCAAA,0.0699
18,GCTAGGGA,0.0712
19,CGTCCATC,0.0756
20,CTACTAAA,0.0745
21,CGACCGCA,0.0742
22,AGTCCCTA,0.0701
23,TGGTAGAA,0.0712
24,AAGAAGAG,0.0769
25,CACGATCG,0.0793

row,Sequence,binding signal (normalized occupancy)
1,CCTATTAG,0.0744
2,CCCGCTGC,0.0756
3,ATTTGCCC,0.0735
4,AGCCTAGC,0.0688
5,ACCTCACC,0.0796
6,ATGGAAAC,0.0803
7,GCCGATAC,0.0771
8,GCGACTAC,0.0718
9,AGGCAGGA,0.0745
10,AAGCCGGC,0.0687
11,AAGACTTC,0.0738
12,TGACCGCA,0.0775
13,ATTTGTAC,0.0801
14,GTTGCGTA,0.0775
15,CGGATATC,0.0792
16,ACACCTGA,0.0871
17,AATGACAG,0.0744
18,AAACAATC,0.0716
19,CGAGTGTA,0.082
20,AGACTCGC,0.0708
21,TATCAAGA,0.0806
22,TTACAGAA,0.0782
23,ATCAGAAT,0.0779
24,AAAACACC,0.0711
25,ACTATACC,0.0791

row,Sequence,binding signal (normalized occupancy)
1,AGCATACG,0.0797
2,ATACACAA,0.0801
3,CTAATAGC,0.0742
4,TCGCGCCA,0.0678
5,ACTGATAA,0.0792
6,ACTTTTAC,0.0751
7,CCGGTTCC,0.0684
8,CTCGTTGA,0.0795
9,GCTTAGGA,0.0763
10,CAGTCCGC,0.0669
11,TCAAGGAA,0.0712
12,GCGTGGCC,0.0977
13,ATTAATAA,0.0792
14,AACGCTCA,0.073
15,GTAACCGA,0.0706
16,CCTACCCA,0.0832
17,GTTCTTAA,0.07
18,CGGTCAAC,0.073
19,ATGACGTG,0.0885
20,GCCCGGGC,0.0643
21,ATATGACC,0.0877
22,AGGGTTGG,0.078
23,AATCCATG,0.0812
24,ACTTATGG,0.0844
25,CACAGACG,0.0662

row,Sequence,binding signal (normalized occupancy)
1,GGCTGTAC,0.071
2,AGGCACAC,0.0801
3,CTACACTC,0.0802
4,GTCTTGCA,0.0721
5,GAGCCGTA,0.0685
6,AGAGCATG,0.0989
7,GATAATCA,0.0856
8,GATTGCCA,0.0763
9,CGATGTTA,0.0792
10,GAGGCGAA,0.0686
11,ATATTGAT,0.0816
12,CCACCTTA,0.0756
13,AGATCTTA,0.0797
14,ACTTTCGC,0.076
15,AAGACTGT,0.0716
16,ATATGATG,0.0886
17,CGGCGAAA,0.068
18,CCCTAGAG,0.0723
19,AAAACACG,0.0851
20,ATTGGATC,0.0791
21,CTCACGGC,0.0724
22,ACCACAGG,0.0732
23,ATCGCACA,0.0803
24,AGTGCTCA,0.0761
25,ACCCTTCC,0.0751

row,Sequence,binding signal (normalized occupancy)
1,CGTAACCC,0.0788
2,CTGGTAGC,0.0698
3,AGCGCCGA,0.0647
4,GAGTTCAA,0.0741
5,CGCAGGCC,0.07
6,ATCGACGG,0.0723
7,CCGCCATC,0.0766
8,TAAGTTGA,0.0737
9,CAGAGCCA,0.0749
10,AACCTGGT,0.0793
11,AATTGGTC,0.0704
12,AGTACCCA,0.0812
13,ATCTCAAC,0.0783
14,AACACACC,0.0814
15,GATGGTAC,0.0754
16,CTAGTAAC,0.0773
17,CCTACGCA,0.0816
18,AAATACGG,0.0732
19,CTATCTCC,0.0798
20,CTGGTTAA,0.0718
21,CACACCAG,0.0838
22,GCTTTGCC,0.0676
